Some of these densities may be calculated back from excess volumes.
Test: xn = mol fraction of the nth substance listed
Conditions: 293.15 K, 100 kPa

CCO + CC(=O)[O-].Cn1cc[n+](C)c1
mass density (x2 = 0): 789.5 kg/m3

CC(=O)[O-].Cn1cc[n+](C)c1 + CCO
mass density (x1 = 0.0291): 814.7 kg/m3
mass density (x1 = 0.0405): 823.6 kg/m3
mass density (x1 = 0.0513): 832.1 kg/m3
mass density (x1 = 0.0733): 848.3 kg/m3
mass density (x1 = 0.1157): 877.3 kg/m3
mass density (x1 = 0.2104): 931.8 kg/m3
mass density (x1 = 0.2607): 956.1 kg/m3
mass density (x1 = 0.4929): 1037.9 kg/m3
mass density (x1 = 0.5903): 1062 kg/m3
mass density (x1 = 0.7305): 1089.9 kg/m3

Source: a compilation of properties of binary mixtures (doi:10.1109/gcce.2014.7031273)
